Data: the supplement of paper PMC4723716
± gives the uncertainty stated by the source. Whole data set: some 9,900 compounds, median “viability index relative to DMSO control” near 1, cut for the lowest 2% near 0.85. The list shows a part of the results.

tested on: Plasmodium falciparum NF54 stage V gametocytes; assay: viability index relative to DMSO control (fraction); higher = less gametocyte killing; conditions: 2.5 µM, library set: Broad Institute DOS, incubation time: 72 h
Method in brief: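 P. falciparum NF54 stage V gametocytes in serum-free screening medium (0.75% gametocytemia, 1.25% hematocrit, 10 µl) were incubated with compound at 2.5 µM in 1,536-well plates for 72 hr at 37°C under low oxygen. Then 3 µl of 2.5 µM MitoTracker Red CMXRos plus 0.13% saponin was added for one to two hours. One field per well was imaged, 20–70 µm2 red particles were counted, and the viability index was the count divided by the plate mean of DMSO wells.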

For `COCC#Cc1ccc([C@H]2[C@H](CO)N3C(=O)CN(C(=O)C4CCCCC4)C[C@@H]23)cc1`, which viability index is on record?
The viability index was 1.07 ± 0.045.

`C/C=C/c1ccc([C@@H]2[C@H]3CNC[C@@H]2N3C(=O)Nc2ccc(C(F)(F)F)cc2)cc1` was tested. Which viability index did it give?
The viability index was 1.05 ± 0.047.

With `O=C(C1CCCCC1)N1[C@H](CO)[C@@H]2c3ccccc3N(S(=O)(=O)c3ccccc3)C[C@@H]21` as the compound, how does the viability index read?
Its viability index is 0.929 ± 0.18.

For `O=C(C[C@H]1C=C[C@@H](NC(=O)CCN2CCCCC2)[C@H](CO)O1)Nc1nccs1`, which viability index is on record?
Its viability index is 0.934 ± 0.057.

Which viability index does the source give for `O=C(C[C@@H]1CC[C@@H]2[C@H](COC[C@@H](O)CN2S(=O)(=O)c2cccc(Cl)c2)O1)N1CCOCC1` here?
Its viability index is 1.1 ± 0.099.

`COc1ccc(C#Cc2cccc(-c3nc(C(=O)N4CCN(Cc5ccccc5)CC4)cc4c3[C@@H](CCO)N(S(=O)C(C)(C)C)C4)c2)cc1OC` (stereo partly specified) was tested. Which viability index did it give?
Its viability index is 0.826 ± 0.14.

Which viability index does the source give for `CN(C)Cc1cn(CC[C@H]2CC[C@H](NC(=O)Cc3cccnc3)[C@@H](CO)O2)nn1` here?
Its viability index is 1.04 ± 0.049.

`C[C@H](CO)N1C[C@H](C)[C@H](CN(C)C(=O)Nc2ccc(-c3ccccc3)cc2)OCc2ccccc2-c2ccccc2C1=O` was tested. Which viability index did it give?
Its viability index is 0.904 ± 0.031.

How did the viability index turn out when `C(=C\c1ccc([C@H]2[C@@H]3CN(Cc4cocn4)C[C@H]2N3)cc1)/c1ccccc1` was run?
The viability index was 1.01 ± 0.041.

For `COc1ccc2c3c([nH]c2c1)[C@@H](CO)N(C[C@]31CCN(Cc2ccccc2Cl)CC1)S(=O)(=O)c1cn(C)cn1`, which viability index is on record?
Its viability index is 0.955 ± 0.018.

How did the viability index turn out when `CO[C@@H]1CN(C)C(=O)c2ccc(N)cc2OC[C@@H](C)NC[C@H]1C` was run?
Its viability index is 1.08 ± 0.066.

With `C[C@H]1CN([C@@H](C)CO)C(=O)c2cc(-c3ccncc3)cnc2O[C@H]1CN(C)C(=O)CN1CCOCC1` as the compound, how does the viability index read?
Its viability index is 1.01 ± 0.053.

For `C[C@H](CO)N1C[C@H](C)[C@@H](CN(C)C(=O)Nc2cccc(Oc3ccccn3)c2)OCc2cnnn2CCCC1=O`, which viability index is on record?
Its viability index is 1.03 ± 0.047.

For `C/C=C/c1ccc([C@H]2[C@@H](CO)N(S(C)(=O)=O)[C@@H]2CN(C(C)=O)C(C)C)cc1`, which viability index is on record?
Its viability index is 0.957 ± 0.06.

With `O=C(C[C@@H]1CC[C@@H]2[C@H](COC[C@@H](O)CN2Cc2ccc3c(c2)OCO3)O1)N1CCCCC1` as the compound, how does the viability index read?
Its viability index is 0.99 ± 0.12.

Which viability index does the source give for `COc1ccc2c3c([nH]c2c1)[C@@H](CO)N(C[C@]31CN(Cc2ccccc2)C1)S(=O)(=O)c1ccc(C)cc1` here?
The viability index was 0.909 ± 0.098.

Which viability index does the source give for `Cc1noc(C)c1NC(=O)Nc1ccc2c(c1)C(=O)N([C@@H](C)CO)C[C@H](C)[C@H](CN(C)S(=O)(=O)c1cccs1)OCCCC[C@@H](C)O2` here?
Its viability index is 1.09 ± 0.045.

With `C[C@@H](NC(=O)C[C@@H]1CC[C@@H]2[C@@H](COc3ccc(NS(=O)(=O)c4ccc(Cl)cc4)cc3C(=O)N2C)O1)c1ccccc1` as the compound, how does the viability index read?
Its viability index is 1.07 ± 0.047.

With `CCCC#Cc1ccc2c(c1)O[C@@H](CN(C)Cc1ccccn1)[C@@H](C)CN([C@@H](C)CO)S2(=O)=O` as the compound, how does the viability index read?
Its viability index is 0.884 ± 0.045.

For `CCCN(C)C[C@H]1Oc2cc(/C=C/c3ccccc3)ccc2S(=O)(=O)N([C@H](C)CO)C[C@@H]1C`, which viability index is on record?
The viability index was 1.02 ± 0.016.

How did the viability index turn out when `Cc1noc(C)c1NC(=O)N(C)C[C@H]1Oc2ccc(NC(=O)CCCN(C)C)cc2C(=O)N([C@H](C)CO)C[C@H]1C` was run?
The viability index was 0.975 ± 0.17.
